The chains are these.
B1: LINE1-mini (parent)
chain: GGCAGAGCUCAACACAGCGUGGCAAAGUGGCUGUGGCUAGACUGCC

Read counts are not given, so values of variants with three or more changes are uncertain.

In the series the parent is B1. As to the kind of experiment: self-cleavage, relative activity (ratio to wild type); higher = more cleavage; in vitro, sequencing; the parent is a self-cleaving ribozyme.
Take GGCAGAGCUCAACACACAGUGGAAAAGUGGCUCUGACUAGACUGCC: the self-cleavage came out at 0.03.

On to GGCAGAGCUCAACACAUCGUGGCAAAGUGGCUGUGGCUUGACCGCC, for which the self-cleavage is 0.02.

For GGCAGAGCUCAACACACCGUAGCAACGUGGCUGUGCCUAAACGGCC, the self-cleavage turned out to be 0.08.

On to GGCAGAGCUCAACACAACGCGGCAAAGGGGCUGUGGCUAGACUGCC, for which the self-cleavage was 0.04.

As for GGCAGAGCUCAACACAACGCCGCAACGUGGCUGUGGCUAGACUGCC, the self-cleavage was 0.33.

For GGCAGAGCUCAACACACCGCAGCGAAGUGGCUGUGGCUAGACUGCC, the self-cleavage was 0.32.

GGCAGAGCUCAACACACCGUGGCAAAGUGGGUGUGGCGAGACUGCC: the self-cleavage is 0.03.

Take GGCAGAGCUCAACACACCGUGACAAAGUGGCUGUGGCUAGACUGCA: the self-cleavage turned out to be 0.11.

As for GGCAGAGCUCAACACACCGUCGCAAACUGGCUGUGGCUACACUGCC, the self-cleavage stood at 0.07.

For the variant GGCAGAGCUCAACACACCGUGGUUAAGUGGCUGUGGUUAGACUGCC, the self-cleavage was found to be 0.09.

For the variant GGCAGAGCUCAACACACCGUGGCAAAAAGCUUGUGGCUAGACUGCC, the self-cleavage is 0.61.

With GGCAGAGCUCAACACACCGUGCCAAAGCGGCUGUGGCUAGACUGCC, the self-cleavage worked out at 0.17.

Consider GGCAGAGCUCAACACAACGAGGCAAAGCGGCUGUGGCUACACUGCC, for which the self-cleavage is 0.03.

On to GGCAGAGCUCAACACAUAGUGGCACAGUGGCUGUGGGUAGACUGCC, for which the self-cleavage is 0.02.

For GGCAGAGCUCAACACACCGUGGCAAAGAGGCUGUGGUUAGACUGCC, the self-cleavage stood at 0.06.

As for GGCAGAGCUCAACACACCGUGGAAAAGUGGCUGUGGCUAGAUUGCC, the self-cleavage was found to be 0.17.

With GGCAGAGCUCAACACACCGCGGCAAAGUGUCUGUGACUAGACUUAC, the self-cleavage worked out at 0.02.

Regarding GGCAGAGCUCAACACACCGCGGCAAAGUGGCUCUGGAUAGACUGCC, the self-cleavage was determined as 0.

Take GGCAGAGCUCAACACAACGCGGCUAAGUGGCUGUUGCUAGACUUCC: the self-cleavage is 0.01.

Regarding GGCAGAGCUCAACACACCGUCGGAAAGUGGCUGUGGCUAGACUGCC, the self-cleavage turned out to be 0.57.

As for GGCAGAGCUCAACACACCGUGGCAAAGUGGCUGUGGGUAGACAGCC, the self-cleavage amounted to 0.24.

GGCAGAGCUCAACACACCGUGGAAAAGUGACUGUGGCUAGACUGUC: the self-cleavage was 0.05.

On to GGCAGAGCUCAACACACCGUGGGAAAGUGGCUGUGGCUAAACGGCC, for which the self-cleavage came to 0.2.

Regarding GGCAGAGCUCAACACACCGUGGUAUAGUGGCUGUGGCUAGACUGCC, the self-cleavage is 1.51.

For the variant GGCAGAGCUCAACACACCGUGGCUAAGUGGCUGUGGCUAUACUGCC, the self-cleavage amounted to 0.01.

Regarding GGCAGAGCUCAACACACCGUUACAAACUGGCUGUGGCUAGACUGCC, the self-cleavage worked out at 0.3.

Consider GGCAGAGCUCAACACAUCGUGGCAAGGUGGCUGUUGCUAGACUGCC, for which the self-cleavage stood at 0.09.

For the variant GGCAGAGCUCAACACACCGUGGCAAAGAGGCUGUGGCUAGACUCCC, the self-cleavage is 0.06.

On to GGCAGAGCUCAACACACCGUGGCAAAGGGGCUGUGGCUAGAGUGCA, for which the self-cleavage came to 0.03.

In the case of GGCAGAGCUCAACACACCGUGGCAGAGUGGGUGUGGCUAGACUGCC, the self-cleavage was 0.35.

As to GGCAGAGCUCAACACACCGUGGCAAAGUGUCUGUGGCUAGGCUGCC, the self-cleavage amounted to 0.01.

With GGCAGAGCUCAACACACCGUGGCAACGGGGCAGUGGCUAGACUGCC, the self-cleavage was 0.15.

As to GGCAGAGCUCAACACACCGUGGCAAAGUGGCUGUUGGUAGACUGCC, the self-cleavage worked out at 0.02.

On to GGCAGAGCUCAACACAACGUGGCAAAGGGGAUGUUGCUAGACUGCC, for which the self-cleavage was determined as 0.04.

As to GGCAGAGCUCAACACACCGUAACAAAGUGGCUGUGGCUAGACUGCC, the self-cleavage was determined as 0.05.

Take GGCAGAGCUCAACACACCGUACCAAAGUGGCUGUGGCUAGACUGCC: the self-cleavage was 0.95.

Take GGCAGAGCUCAACACACCGUGGCAAAUUGGCUGUGGCUAAACUGCC: the self-cleavage was determined as 0.11.

On to GGCAGAGCUCAACACACCGUGGUAAAGUGGCAGUGGCUAGACUGCC, for which the self-cleavage is 0.13.

On to GGCAGAGCUCAACACACCGUGGUAAAGUGGUUUUGGCUAGACUGCC, for which the self-cleavage stood at 0.08.

Regarding GGCAGAGCUCAACACACCGUGGCAAAGUGGCUGUGGCUAGUCCGCC, the self-cleavage came out at 0.04.

Consider GGCAGAGCUCAACACAACGUGGCAAAGUGGCUGUGCCUAGAGUGCC, for which the self-cleavage came out at 0.03.

For the variant GGCAGAGCUCAACACACCGUUGCAAAGUGGGUGUGGCUAGACUGCC, the self-cleavage was 0.13.

Take GGCAGAGCUCAACACACCGUGGCAAAGUGGCUGUGGCUGGACUGCA: the self-cleavage was determined as 0.06.

GGCAGAGCUCAACACACUGUGGCAAAGUGGCUGUGGCUAGACUGCA: the self-cleavage amounted to 0.1.

As for GGCAGAGCUCAACACACCGUGGCAAAGUGUCUGUGGCUAGACUGAC, the self-cleavage was determined as 0.05.

Regarding GGCAGAGCUCAACACAACGGGGCAAUGUGGCUGUGGCUAGAAUGCC, the self-cleavage is 0.

With GGCAGAGCUCAACACACCGUGGCAAAGUGGCUGUGGCUAGACCGCA, the self-cleavage was found to be 0.1.

As to GGCAGAGCUCAACACAUCGUGGCAACGUGGCUGUGGCUAGACUGCU, the self-cleavage stood at 0.06.

For the variant GGCAGAGCUCAACACACCCAGGCAAAGUCGCUGUGGCUAGCCCGCC, the self-cleavage stood at 0.05.

For GGCAGAGCUCAACACACCGUGGCGAUGUUGUUGUGGCUAGACUGCA, the self-cleavage was 0.03.

Regarding GGCAGAGCUCAACACAUCGUGGCCAAGUGCCUGUGGCUAGAUUACC, the self-cleavage was determined as 0.02.

With GGCAGAGCUCAACACACCGUGGCAAAGUGGCUGUGUCAAGCCAACC, the self-cleavage was 0.01.

As for GGCAGAGCUCAACACACCGUGGCAAAGUAGCUGUGGCUAGAUUUCC, the self-cleavage is 0.01.

With GGCAGAGCUCAACACACCGUGGCAAAGUGGCUGUGACUAGACUACC, the self-cleavage was found to be 0.03.

Take GGCAGAGCUCAACACACCGUGGCAAAGUGGUUGUGGCUAGAAUUCC: the self-cleavage amounted to 0.02.

Regarding GGCAGAGCUCAACACACAGUGGCAAACUGGCUGUGGCUAGAUUGCC, the self-cleavage worked out at 0.01.
